Measurements from the RNAGym collection of RNA variant scans (doi:10.7554/elife.90254).
Read counts are not given, so values of variants with three or more changes are uncertain.

B1: LINE1-mini (parent)
chain: GGCAGAGCUCAACACAGCGUGGCAAAGUGGCUGUGGCUAGACUGCC

Variants of: B1
Test: self-cleavage, relative activity (ratio to wild type); higher = more cleavage; in vitro, sequencing; the parent is a self-cleaving ribozyme

Variant | self-cleavage
A26C G27U G30U | 0.73
G22A G30U U32G | 0.02
U9A A11C C15U C23A C37U | 0.01
C23U G29C G36A C45A | 0.59
A12U C15A U20A G29C U34C G36A | 0
G21A U28G G30A | 0.81
A6U C10A A24U G30U C31U | 0.03
A14C G27U G30C C31G | 0.02
G5A G17A G21A A24U A41G C46U | 0.11
C23U A25U U32A | 0.17
C8G U9A G21U U28A U38A A39C | 0.17
G2U C13A U20G C46A | 0.02
C3G G5U C31U C37U U38G | 0.03
G7C U9C G33C C42G C46G | 0.02
C10A A11C G19A A25C G29C | 0.01
C8A A11C C15U A16C A26U G33U | 0.02
A11G G19U C42U C46A | 0
C10G C15U U32A | 0.01
A6U C23A A25G G30U U38G C42A | 0.04
A11U G22U G27C A41C | 0.01
C8G C13A U28C | 0.14
G5C G22U A26U G29U C46U | 0.05
A24U A25C G33A | 0.03
C13A A24C G35C | 0.04

Variant | self-cleavage
C15G G29A G33C G44A | 0.03
A11U C23U C31U A41C U43G | 0
G1A A11G G19U G33U C37A U38G | 0.02
G1U U9G G19U U28C | 0.01
G17U C18G G19C C23U G29C C42A | 0.04
U20C G36U U38A C46U | 0.03
U9A C18A G22A G40U | 0.01
A16G G30C U32G | 0.31
A11G A16U A41U G44C | 0.06
G22A G27A U32C | 0.24
C8A C10A A11G C15G G22U G30C G33U C45A | 0
G2A U9G C23U | 0.5
U9A C18A C37U U38C C46A | 0.04
C8A U9G A12U G17A C31A | 0.05
C15A G17C U32C G33A C45U | 0.02
A14G A39C G40A U43A | 0
A6U C10A U20C G27U U28C | 0.01
C18U U34A G36C | 0.03
C10G G17C U32C A39U | 0.03
C13A G30A A41C U43A | 0
A12G G33U G36U | 0.06
C3U A12U A25U | 0.23
C8A C13A G17C A26U | 0.25
C10A U28C G33C | 0.04

Variant | self-cleavage
G2A U28A G29C | 0.2
C3A G5C C18A A41C | 0.08
G2U G19A A24G | 0.06
G1U A11U C23U | 0.06
G30C G33A A41U | 0.17
A14G C15A U34A C37A | 0.01
C8A G22C C23G G29U C37A | 0.06
U20G G27A C37A G44A C46U | 0.31
C23A G27U G33U A39U C45U | 0.02
C3A G22U G29U | 0.49
G1U A14C C18G G27U | 0.02
C10A C18A A25G G33A G40A | 0.03
C8U G17C C31U C42G C45U | 0.14
C8A G22C A26C G36U | 0.09
U20G G29U A39U | 0.24
G17A G19C G44A | 0.18
C10A A12U G27U U34C | 0.02
G1A A4G G27U U28C C31U | 0.15
U20G A25C G35U G40U | 0
U9G A12G A25U U28C C31G | 0.02
G1U G21U G27C | 0.18
G5C G17A G21U G29C U32C | 0.02
G7U A25G G27A C31U U38A | 0.12
A12C G19A G22U | 0.01

Variant | self-cleavage
G1A C10A A11U A26U | 0.02
G1U C8G G22C A26C A39G | 0.01
G5U G7U C18A A26G U32C A39U C46G | 0.01
C8A G21A C45A | 0.63
G2U G35C C46G | 0.01
G2C C3G A39U | 0.06
C3U G7A A11C A25C | 0.03
G2C G22A G33U C37A | 0.06
C3U C10U G19U U43G | 0.01
C10A C15U G21A G29A C46G | 0.03
C3A G7C C46A | 0.12
G1U A24U A39C | 0.03
C10A G22C U28A G29A | 0.01
G21U G35A G44U | 0.26
G7A G17A U38A C42A | 0.01
G7U A12G A24U C42G | 0.01
G22C A24U A26G G40U | 0.12
A24G C31A U34A | 0.01
A6U C18U G27A C46G | 2.08
G22C G40U C45U | 0.08
C3U A4C C10U C15U G29A | 0.28
C18A G21U G33C C37A C42U C46A | 0
G1C A6U A41G C46U | 0.31
C8U G19C C23U G27U U28G G33A C42U | 0.07

Variant | self-cleavage
A6U A24U A25U C31U U32C U38A G40U | 0.04
G1A C18U U20C | 0.41
G5U G22U U28A | 0.04
C3G G5A C8U G21C G40U | 0.26
C23A G36A A39G | 1.26
G7U U38C G44A | 0.19
A11G U28G C46A | 0.03
G2C A6C A11U G19A A39C C42G | 0.01
G27A C37U U38A C46G | 0.08
A16G G29A C37A | 0.14
G5U U28C G30C | 0
C15G G35U U38A U43C | 0.01
G5U C8G G17C G35A G36U | 0.09
A4U A11G A26U | 0.07
G1C G2C G22C G27A G35C | 0.03
A16G A24U G27U G30A | 2.31
A6G C10A G22U U38C G40A | 0
A11G G22A G29A U32G | 0.02
A4U A6U A12C | 0.01
A11G U20A C23U C31A | 0.03
C23U G27U G30A | 2.11
C8A G21C C42A G44A | 0.47
A4C G21U A41U U43A | 0.01
G1U A11U A12G G17U G21U G30C C45A | 0.02

Variant | self-cleavage
G5C A11U C45A | 0.04
C3U C15G C37G G40U | 0.02
G7U A12U G19C G22A U28A G33U | 0.01
A11C C15G U32G | 0
G2U C23U A41U C42G G44C | 0.03
G7A A11G C18U G35A | 0.03
C13U G17C U20G C42G | 0.01
G2A G17A U38A U43C G44C | 0.06
G7A U32A G33A C45A | 0.18
C8U A11U A25U G30U | 0.01
C13G A39G U43A G44A | 0.02
G2A C13U G22C G33U | 0.08
A26U C42G G44A | 0.07
G1A A6C A12U A14C U43A | 0.02
C3A C8A U9C A11U G27A | 0.03
G5C A16C G19A A39U | 0.02
C8G C15U U20G G44A C45U | 0.09
C3U G5A C10A G17U U28C C31G | 0.02
C10A C18U G19A C23U A25U C37A A39C G44U C46U | 0
G1U A4G C13A A25C A26G C37A U38A A39G | 0.05
G2A A11C U20C A26U G44A | 0.07
G7C G40U A41G | 0.08
A24C G29U C45U | 0.32
A4G A12C A24G G35C G44C | 0.01

Variant | self-cleavage
U9A G21C G29C C42G | 0.03
C3U A12C G17A C45U | 0
C8U U9A U28A C31G G44U | 0.06
C13U A14C U32G G40A | 0.07
C3A G7C A26U G29U C37U | 0.06
G30A G33U U34C | 0.24
C8A C23G C42A | 0.2
G7U A12C U28A | 0.01
A24C A25G C31U | 0.11
C18U A26C A39G | 0.02
G7A U20C G40A U43C | 0.06
A4G G7U C15G A25G C46U | 0.04
G1A G19U G21U C23U G40A C42U | 0
G2A C13G G21A C37U A39C C45A | 0.08
C3G G36C C37G | 0.08
A4U C8A U9A G17A U20A G21A G40A C45U | 0.09
G7U C8A C13A C42G C46U | 0.91
G7C G17U C31U U38A | 0.02
C10U U34C G44C | 0.06
C10U G17C A24U G30A | 0.09
A4U A6C U9G C18G C23A C46A | 0.48
C8A G17U A39U | 0.52
G5A A24C G36A G40C A41G C46U | 0
